Over roughly 110,000 compounds, “z-score” has its median near -0.1; the highest 2% begin near 2. Some of the results follow.

The target in the assay is Metabotropic glutamate receptor 8 (Rattus norvegicus) (UniProt P70579). Put plainly: mGluR8 Gi/Go-coupled signaling modulation – cell-based, rat, thallium flux, HTS, primary screen (AID 488969). The conditions noted are these: HEK293 rat mGluR8, GIRK (G protein-gated inwardly rectifying potassium channel) thallium flux, FluoZin2; at 10 µM; stronger effect = higher value; submaximal glutamate (EC20) added with thallium.
Sequence of UniProt P70579 (P70579 whole entry, looked up): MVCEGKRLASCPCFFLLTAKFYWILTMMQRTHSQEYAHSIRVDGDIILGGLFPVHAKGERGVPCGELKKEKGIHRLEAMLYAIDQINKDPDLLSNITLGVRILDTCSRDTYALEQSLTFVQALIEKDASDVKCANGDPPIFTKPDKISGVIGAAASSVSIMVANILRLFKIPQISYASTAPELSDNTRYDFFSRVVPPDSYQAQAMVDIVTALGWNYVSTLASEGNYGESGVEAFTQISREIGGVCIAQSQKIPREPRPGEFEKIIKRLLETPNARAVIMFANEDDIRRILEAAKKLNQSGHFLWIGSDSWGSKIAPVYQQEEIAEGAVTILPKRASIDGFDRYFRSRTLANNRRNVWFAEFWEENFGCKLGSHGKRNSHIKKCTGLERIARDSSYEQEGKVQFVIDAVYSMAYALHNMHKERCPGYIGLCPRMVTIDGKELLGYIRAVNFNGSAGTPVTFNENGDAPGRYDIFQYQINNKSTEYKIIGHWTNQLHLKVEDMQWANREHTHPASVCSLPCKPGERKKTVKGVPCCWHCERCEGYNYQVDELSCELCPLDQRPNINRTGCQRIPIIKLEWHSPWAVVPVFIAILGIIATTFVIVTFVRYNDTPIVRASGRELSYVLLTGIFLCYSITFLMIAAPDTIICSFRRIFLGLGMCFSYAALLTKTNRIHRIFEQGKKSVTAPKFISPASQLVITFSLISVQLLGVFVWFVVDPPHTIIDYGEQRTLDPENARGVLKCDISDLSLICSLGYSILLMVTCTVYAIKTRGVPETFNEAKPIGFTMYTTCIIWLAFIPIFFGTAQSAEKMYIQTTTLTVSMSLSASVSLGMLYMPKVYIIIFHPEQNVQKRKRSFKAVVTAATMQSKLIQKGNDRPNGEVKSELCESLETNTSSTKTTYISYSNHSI
Regarding `C=CCSc1ncc(C#N)c(N)n1`, the z-score was -0.187.

`O=C(O)CCCC(=O)NCCCCc1ccccc1` yielded a z-score of 0.0123. As for `Cc1ccc2nsnc2c1S(=O)(=O)N(Cc1ccco1)Cc1cc2cccc(C)c2[nH]c1=O`, the figure is 0.0349.

In turn, `CC(C(=O)Nc1ccccc1C(=O)N1CCCC1)n1nnc2ccccc21` (stereo not drawn) had a z-score of 0.0702. With `Cc1ccc(/C(COc2ccccc2O)=N\O)cc1`, the z-score came to 0.516. To `CC(C)CCNC(=O)CNC(=S)N(CCCN1CCOCC1)Cc1cccs1` belongs 0.225.

`Nc1cccnc1Sc1cc(Cl)cc(Cl)c1`: the z-score is -0.059. To `COc1cccc(NC(=O)N(C2CCCCC2)C(C)c2cccs2)c1` (stereo not drawn) belongs -0.017; to `CCCC(=O)Nc1ccc(NC(=O)c2ccco2)cn1`, 1.89. In turn, `O=C(NC(NC(=S)Nc1ccccc1)C(Cl)(Cl)Cl)c1cccc(Cl)c1` (stereo not drawn) had a z-score of 1.95. As for `Nc1nnc(SCC(=O)N2CCc3ccccc32)n1-c1ccccc1`, the figure is -0.0448; as for `Nc1nc(CN2CCC(Cc3ccccc3)CC2)nc(Nc2ccccc2)n1`, 2.39; as for `O=C(COc1cccc2cccnc12)N1CCc2ccccc2C1`, 0.452. To `CCCCCOc1ccc(Br)cc1/C(C)=N/NC1=NCCN1` belongs 1.05; to `CS(=O)(=O)Nc1nnc(Cc2ccccc2)s1`, -0.552. To `COc1ccc(-c2ccc(CCC(=O)O)n2CC(C)C)cc1` belongs 0.382; to `Cc1cccc(-n2c(SCC(=O)Nc3ncc(Cl)cc3Cl)nc3ccccc32)c1`, -0.585; to `O=C1C2C3C=CC([C@@H]2C(=O)N1c1nccs1)C31CC1` (stereo partly drawn), -0.0608. With `CCOC(=O)CCP(=O)(O)C(C)(O)c1ccccc1` (stereo not drawn), the z-score is 0.0487. To `O=C(Nc1nnc(C2CC2)o1)c1ccc(S(=O)(=O)N2CCCc3ccccc32)cc1` belongs 1.85; to `COC(=O)c1ccc(N2CCCCC2)c(NS(=O)(=O)c2ccc(C)cc2)c1`, -0.0153; to `COc1ccc(C2c3c(-c4ccccc4O)n[nH]c3C(=O)N2CCc2ccc(OC)c(OC)c2)cc1` (stereo not drawn), 0.745.

For `Cc1oc(-c2ccc(Cl)cc2)nc1CS(=O)CC(=O)NCCN1CCCC1` (stereo not drawn), the z-score came out at 0.358.

As to `COc1cccc2cc(-c3cn4cccc(C)c4n3)c(=O)oc12`, the z-score was -0.32. To `COc1ccccc1N1CCN(c2nc3c(C)cccn3c(=O)c2C=O)CC1` belongs -0.237. As to `O=Cc1ccc(N2CCCC2)c(F)c1`, the z-score was found to be 0.126. To `O=C(O)c1ccc2c(c1)ncn2C1CCCCCC1` belongs 0.321; to `Cc1c(NC(=O)/C(C#N)=C/c2ccc(-c3ccc(Cl)c(Cl)c3)o2)c(=O)n(-c2ccccc2)n1C`, 0.0364; to `O=[N+]([O-])c1ccccc1NCCNc1ncc(C(F)(F)F)cc1Cl`, -0.0374.

The molecule `CCCCn1c(-c2nn(C)cc2Cl)n[nH]c1=S` had a z-score of -0.937. On to `CCn1c(SCC(=O)Nc2nnc(C)s2)nnc1-c1ccncc1`, for which the z-score is -0.0598. As for `COc1ccccc1N(C(=O)NCc1ccccc1)C1=NCC(C)S1` (stereo not drawn), the figure is -0.982; as for `CN(C)c1nc(SCC#N)nc(N2CCOCC2)n1`, 0.0471; as for `O=C1CCC(=O)N1c1cccc(-c2nc3ccccc3o2)c1`, -0.545. As for `C/C(=N\NC(=O)c1ccc(Br)cc1)C1C(=O)c2ccccc2C1=O`, the figure is -0.301. To `COc1ccc(Nc2nnc(SCc3cc(=O)n4ccsc4n3)s2)cc1` belongs -0.097; to `COc1ccc(CNC(=O)C2CC(C)=C(C)CC2C(=O)O)cc1` (stereo not drawn), 0.845; to `O=C(N/N=C/c1c(Cl)cccc1Cl)c1ccc(F)cc1`, -0.476.

The molecule `CCCC(c1nnnn1C1CCCC1)N1CCN(C(=O)c2ccco2)CC1` (stereo not drawn) came in with a z-score of -0.111. Consider `CC1CCCCC1N=CC1=C(O)CC(C)(C)CC1=O` (stereo not drawn), for which the z-score is 0.463. As for `O=C(CN(Cc1ccco1)C(=O)c1ccc(Cl)cc1)Nc1ccc(Cl)c(Cl)c1`, the figure is -0.0983; as for `Cc1nc(CC(=O)NNS(=O)(=O)c2ccc3ccccc3c2)cs1`, 0.0826. As for `COC(=O)c1c(NC(=O)c2ccco2)sc(C)c1C`, the figure is 0.752; as for `Cc1cccnc1NS(=O)(=O)c1cccc([N+](=O)[O-])c1`, 0.034.

`CCN(CC)c1ccc(NS(=O)(=O)c2ccc3c(c2)oc(=O)n3C)c(C)c1`: the z-score came to 0.308. To `CCCCOC(=O)Nc1nc(CC(=O)OCC)cs1` belongs 0.0147. To `CCC1Oc2ccc(C)cc2N(CC(=O)N2CCN(c3ccc(F)cc3)CC2)C1=O` (stereo not drawn) belongs -0.325; to `O=S(=O)(Nc1ccc2c3c(cccc13)CC2)c1ccc(F)cc1`, -0.364. To `CCc1cc2cc(C)ccc2nc1SCC(=O)Nc1cc(C)on1` belongs 0.28; to `CCOC(=O)CN1NC2(CCC(C(C)(C)C)CC2)NC1=S` (stereo not drawn), 2.66; to `Cc1ccccc1NC(=O)C(C#N)Cc1cccnc1` (stereo not drawn), 2.26. The molecule `CC(=O)Nc1ccc(C(=O)NC(CC(=O)O)c2ccc(Cl)cc2)cc1` (stereo not drawn) gave a z-score of -0.216.

As to `Cc1c(C=O)c2ccccc2n1CC(=O)N1CCc2ccccc2C1`, the z-score was -0.384.

In turn, `CC1=C/C(=N\NC(=O)c2ccc(O)cc2)CC1` registered a z-score of -0.282.

The molecule `C=CCn1c(C)cc(C(=O)Cn2ncc(Cl)c(Cl)c2=O)c1C` registered a z-score of -0.975.

Turning to `Cc1sc(NC(=O)CCC(=O)O)c(C(N)=O)c1-c1ccccc1`, the z-score is -0.002. As for `O=C(COc1ccc(/C=N/NS(=O)(=O)c2ccccc2)cc1)NCc1ccccc1`, the figure is -0.192; as for `COc1ccc(NC(=O)CN2C(=O)CSC(C)C2=O)c(OC)c1` (stereo not drawn), -0.219. To `c1ccc(CSc2nnc(Cc3ccccn3)o2)cc1` belongs 0.201; to `COc1ccccc1CN(C(=O)CCl)C(C(=O)NC1CCCCC1)c1ccncc1` (stereo not drawn), -0.106. As for `CC(=O)N1CCCc2cc(S(=O)(=O)N(C)Cc3ccccc3)ccc21`, the figure is 0.884.

Take `O=CN1CCN(C(C(=O)NC2CCCC2)c2ccc(Cl)cc2)CC1` (stereo not drawn): the z-score was 0.0147. On to `COc1ccc(-c2nc(C3CCCCC3)no2)cc1OC`, for which the z-score amounted to 0.462. `COc1ccc2c(CC(=O)OCC(=O)Nc3cc(C)c(C)cc3[N+](=O)[O-])coc2c1` returned a z-score of -0.287.

With `CCOC(=O)C1=C(c2ccccc2)NC(=S)NC1c1ccc(C)c([N+](=O)[O-])c1` (stereo not drawn), the z-score was -0.641. As for `CCN(c1ccccc1)S(=O)(=O)c1ccc(Cl)c(NC(=O)COC(=O)c2ccc(Cl)c(N)c2)c1`, the figure is -0.0954.

`COc1ccc(C2CC(C(F)(F)F)n3nc(CO)c(Cl)c3N2)cc1OC` (stereo not drawn): the z-score turned out to be 0.545. To `CSc1nsc(SC)c1NC(=O)OC1CCCCC1` belongs -0.15; to `O=C(CCN1C(=O)COc2ccccc21)N1CCN(c2ccccn2)CC1`, 0.258. To `Cn1c(/N=C/c2cccs2)nc2ccccc21` belongs -0.613.

`Cc1ccc2c(c1)c1c3n2CCN(C(=O)C2CC2)C3CCC1` (stereo not drawn): the z-score amounted to 0.0306. For the molecule `Cc1nnc2n(C3CCCCC3)c(=O)c3c4c(sc3n12)CCC4`, the z-score is -0.862. As for `OCCNc1nc2ccccc2n1-c1ncnc2sc3c(c12)CCC3`, the figure is 0.385.

Values taken from PubChem BioAssay AID488969 (Vanderbilt High Throughput Screening Facility, 2010).
